The list shows a part of the results. At the low end of the ranking, values are background and their order means little.
What follows are sequences tested against SIX1-Q177R homeodomain (UniProt Q15475) (assay: universal protein binding microarray). Conditions: Universal all-10-mer PBM (8x60K, AMADID 030236), 300 nM GST-tagged protein, Alexa Fluor 488 anti-GST; buffer, salt, pH and temperature not stated; high values mean tight binding; most listed sequences are background and not binding sites; double strand, one strand shown.
CAGCTGTC showed a binding signal of -0.196 E-score.
GATTCTAA was tested, and the binding signal was -0.117 E-score.
In the case of GTGCGCAA, the binding signal is reported as 0.0875 E-score.
Sequence ATACATGG has a binding signal of -0.0113 E-score.
Sequence AAGGTCTA has a binding signal of -0.0963 E-score.
GACAGCCC gave a binding signal of -0.299 E-score.
In the case of CCATCACA, the binding signal is reported as 0.103 E-score.
AAACGTTA showed a binding signal of -0.0516 E-score.
CCTAATCA showed a binding signal of -0.0718 E-score.
With CGTCCCCA the binding signal was -0.0489 E-score.
AAGCTGAC was tested, and the binding signal was -0.284 E-score.
GCCGTACA gave a binding signal of 0.133 E-score.
CTCATGCA showed a binding signal of -0.107 E-score.
CCGACGCA showed a binding signal of -0.0586 E-score.
Sequence CAACATCA has a binding signal of -0.14 E-score.
For GCTCTAGA, the binding signal was -0.243 E-score.
With CAGGGACG the binding signal was 0.0241 E-score.
With GGTTTAAC the binding signal was 0.193 E-score.
AATCTTGT showed a binding signal of -0.202 E-score.
CCAACCTA gave a binding signal of -0.176 E-score.
GCAGGTAA was tested, and the binding signal was -0.14 E-score.
In the case of AATTCGGC, the binding signal is reported as -0.0519 E-score.
ATTTAATG showed a binding signal of -0.0932 E-score.
With AAGAACTA the binding signal was -0.129 E-score.
Work on ATGGCTTC yielded a binding signal of -0.208 E-score.
For CGCAGGGA, the binding signal was -0.0293 E-score.
Work on AACCGCCG yielded a binding signal of -0.0826 E-score.
Work on AAGAGGAT yielded a binding signal of 0.0451 E-score.
ATCTTCAT showed a binding signal of -0.249 E-score.
GCCCTCAA showed a binding signal of -0.0616 E-score.
Work on GATCTAGA yielded a binding signal of -0.183 E-score.
In the case of GATCCTGA, the binding signal is reported as -0.0224 E-score.
TCAGAGCA showed a binding signal of -0.131 E-score.
AAAACATC showed a binding signal of -0.00295 E-score.
AAACAACT gave a binding signal of -0.13 E-score.
CAGAGACA was tested, and the binding signal was 0.0702 E-score.
In the case of AGGTCCCC, the binding signal is reported as -0.148 E-score.
Work on CTCGGAAA yielded a binding signal of -0.00597 E-score.
CCGCAAAA showed a binding signal of 0.0302 E-score.
ACGACTAG was tested, and the binding signal was 0.0587 E-score.
AAATAGCA gave a binding signal of -0.0795 E-score.
ATCGCTTC gave a binding signal of -0.14 E-score.
Sequence GTTTCAAA has a binding signal of -0.0998 E-score.
In the case of ACTACCGG, the binding signal is reported as 0.118 E-score.
ATCCGCAT was tested, and the binding signal was 0.00834 E-score.
In the case of ATGTACGG, the binding signal is reported as -0.115 E-score.
In the case of TCTTACAA, the binding signal is reported as 0.0494 E-score.
In the case of AGATGAGA, the binding signal is reported as -0.0389 E-score.
For AACACCTA, the binding signal was 0.444 E-score.
Work on CCCTGTGA yielded a binding signal of 0.0909 E-score.
ACAGGAAG showed a binding signal of 0.0565 E-score.
Sequence AGAGTGAG has a binding signal of 0.0316 E-score.
GTACACAA was tested, and the binding signal was 0.308 E-score.
Work on AATTACAA yielded a binding signal of -0.129 E-score.
TGACACAA showed a binding signal of 0.298 E-score.
Work on ATCAAAAC yielded a binding signal of -0.0115 E-score.
In the case of GTAGGAAA, the binding signal is reported as -0.0356 E-score.
With CGCGAATC the binding signal was -0.0176 E-score.
AGGATTCG was tested, and the binding signal was 0.00895 E-score.
GGCAGAGA showed a binding signal of -0.28 E-score.
For CTCTGCGA, the binding signal was -0.0488 E-score.
Sequence CATAGCCG has a binding signal of -0.1 E-score.
ATTACCAG was tested, and the binding signal was -0.155 E-score.
In the case of TGATTGCA, the binding signal is reported as -0.0908 E-score.
Work on GCCATCAA yielded a binding signal of -0.183 E-score.
GTTCCTTA gave a binding signal of -0.072 E-score.
With GTGTTTAA the binding signal was 0.375 E-score.
GATTAATC was tested, and the binding signal was 0.0169 E-score.
Work on AGCCGCTA yielded a binding signal of -0.208 E-score.
CAAGGTCA showed a binding signal of 0.0971 E-score.
CCAGGTCC gave a binding signal of -0.0461 E-score.
TCGATAAA was tested, and the binding signal was -0.164 E-score.
Work on GCCCTTCA yielded a binding signal of -0.302 E-score.
GATCTTTA was tested, and the binding signal was -0.0615 E-score.
In the case of CGAGAAGA, the binding signal is reported as -0.23 E-score.
Work on CATGTACA yielded a binding signal of 0.167 E-score.
CGTATTAG gave a binding signal of 0.11 E-score.
GACTTCCA was tested, and the binding signal was -0.194 E-score.
For AGGTTGAC, the binding signal was -0.045 E-score.
With CGGTGAGA the binding signal was 0.177 E-score.
AACGGTGC showed a binding signal of 0.184 E-score.
CATTAGGA was tested, and the binding signal was -0.00029 E-score.
In the case of CGCACGTC, the binding signal is reported as -0.157 E-score.
In the case of TCTAAGAA, the binding signal is reported as -0.14 E-score.
Sequence GTATCGAC has a binding signal of 0.22 E-score.
For CGTCAACA, the binding signal was 0.148 E-score.
In the case of ACTCAGCG, the binding signal is reported as 0.0365 E-score.
In the case of ACTTGTAG, the binding signal is reported as -0.0582 E-score.
In the case of GGACTCGA, the binding signal is reported as 0.0718 E-score.
With GCCTTAAC the binding signal was -0.0842 E-score.
GAGCGGAC showed a binding signal of -0.272 E-score.
For CCCAGCCC, the binding signal was -0.0988 E-score.
In the case of AGTCCAAA, the binding signal is reported as -0.181 E-score.
GGAGCCAA showed a binding signal of -0.113 E-score.
AGTTGGAG showed a binding signal of -0.135 E-score.
With TCCGGTAA the binding signal was -0.0446 E-score.
ATACACCC was tested, and the binding signal was 0.46 E-score.
In the case of CTCTATGC, the binding signal is reported as 0.0703 E-score.
For ACTACGAC, the binding signal was 0.0445 E-score.
Work on AGCACGCA yielded a binding signal of 0.24 E-score.
AAACGACA gave a binding signal of 0.0832 E-score.
For TACGAGGA, the binding signal was -0.0197 E-score.
ACAGATGT was tested, and the binding signal was -0.191 E-score.
With TCCACCGA the binding signal was -0.0307 E-score.
Sequence AGCAGAGG has a binding signal of -0.199 E-score.
With GACCAACA the binding signal was 0.137 E-score.
Sequence CTTAACCA has a binding signal of -0.0657 E-score.
For CAGTTCTA, the binding signal was -0.0553 E-score.
ATCCGACC gave a binding signal of 0.153 E-score.
CCGACTGA was tested, and the binding signal was -0.102 E-score.
CGATAGCC gave a binding signal of -0.263 E-score.
With CTGTGCTA the binding signal was -0.169 E-score.
Sequence AACTTTAC has a binding signal of -0.0885 E-score.
ATCGTGAC was tested, and the binding signal was -0.104 E-score.
GGCGGCAA showed a binding signal of -0.176 E-score.
ATCAGGTC showed a binding signal of -0.134 E-score.
With AAATAGGT the binding signal was 0.0342 E-score.
AATTTCCG was tested, and the binding signal was -0.191 E-score.
ATCCAAAT gave a binding signal of -0.0907 E-score.
In the case of GCGTGATA, the binding signal is reported as 0.173 E-score.
Work on ATCGGTGG yielded a binding signal of -0.0698 E-score.
TGCGTTAA was tested, and the binding signal was -0.252 E-score.
For ACGGACTG, the binding signal was -0.137 E-score.
For ATGGATTG, the binding signal was 0.0187 E-score.
Sequence AGGCCCTA has a binding signal of -0.169 E-score.
In the case of AGCCCGGG, the binding signal is reported as 0.157 E-score.
ATACATCG showed a binding signal of -0.00199 E-score.
GCGCCTTA was tested, and the binding signal was -0.0142 E-score.
GGGGTACC gave a binding signal of 0.247 E-score.
CTAAGTGA showed a binding signal of -0.0574 E-score.
CTCTGAGA showed a binding signal of -0.0504 E-score.
AGAGACGC gave a binding signal of -0.15 E-score.
With AAGGGCAC the binding signal was 0.0871 E-score.
AAAGGAGC gave a binding signal of -0.196 E-score.
AGGGGTTA showed a binding signal of 0.21 E-score.
ATTAACAC gave a binding signal of 0.416 E-score.
ATACAGAA gave a binding signal of 0.0109 E-score.
Sequence CAAAATAA has a binding signal of 0.012 E-score.
In the case of TGAAGCCA, the binding signal is reported as -0.194 E-score.
In the case of CGGCGCAA, the binding signal is reported as -0.0162 E-score.
Work on GGCGGCCA yielded a binding signal of -0.171 E-score.
In the case of GTGTTTTA, the binding signal is reported as 0.361 E-score.
ATGACTAG was tested, and the binding signal was -0.0498 E-score.
AACCGTTA showed a binding signal of -0.175 E-score.
Sequence CGCAGTTC has a binding signal of -0.1 E-score.
In the case of ACCTGCTA, the binding signal is reported as 0.143 E-score.
For GCTCGGCA, the binding signal was -0.0943 E-score.
CATATCTA showed a binding signal of -0.145 E-score.
For CTCGGCAG, the binding signal was -0.0144 E-score.
AAGCTACC gave a binding signal of -0.13 E-score.
ACGTTTCT gave a binding signal of -0.0772 E-score.
Sequence TTTAAAAA has a binding signal of -0.218 E-score.
ACACAAAG gave a binding signal of 0.236 E-score.
With ACGACGAT the binding signal was -0.014 E-score.
In the case of CACTAAGG, the binding signal is reported as 0.0945 E-score.
In the case of GAAGTGGC, the binding signal is reported as -0.138 E-score.
CGGAGTGA was tested, and the binding signal was 0.216 E-score.
Work on CCAACGCA yielded a binding signal of 0.0509 E-score.
AGTTAAAA gave a binding signal of -0.24 E-score.
ACAGACCA was tested, and the binding signal was -0.0889 E-score.
CAGTGGGC gave a binding signal of 0.00397 E-score.
With CCCAAGGC the binding signal was -0.137 E-score.
CATCGCAA showed a binding signal of -0.0859 E-score.
Work on ACTGGGGA yielded a binding signal of 0.0343 E-score.
For AGCAGGGC, the binding signal was -0.216 E-score.
AAATGGAT was tested, and the binding signal was -0.0529 E-score.
CCCTATGC was tested, and the binding signal was -0.154 E-score.
AAGAGTTC gave a binding signal of 0.0159 E-score.
In the case of ATTTGCAC, the binding signal is reported as -0.077 E-score.
With AGAGACTC the binding signal was -0.103 E-score.
In the case of CCTGAGCA, the binding signal is reported as 0.1 E-score.
Work on ACGGCCAA yielded a binding signal of -0.0618 E-score.
